Laboratory results from PubChem BioAssay AID492947 (National Center for Advancing Translational Sciences (NCATS), 2010).
Out of some 330,000 compounds screened, about 80 (0.02%) were called active. The inconclusive results got no clear call from the source; some entries with a clear call stand among them for comparison. The call rests on the fitted dose curve; in most records, active means well fitted activation curve with a large enough effect; inconclusive means small, poorly fitted or top-dose-only effect; inactive means flat fitted curve, though single readings scatter. No potency is given beside an inconclusive call; the fits are too rough.

Biological target: Beta-2 adrenergic receptor (Homo sapiens) (UniProt P07550)
Assay: qHTS assay of beta-arrestin-biased ligands of beta2-adrenergic receptor; further: nearly all actives have a fitted effect of over 65% in size;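 on activation: 0% = DMSO controls and full agonism = EC100 isoproterenol or metaproterenol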
Conditions: beta-arrestin recruitment to beta2AR, cell-based reporter; series mostly up to 46.1 µM; activation: at the top concentration
Summary of the method: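 Compound series up to 46 microM applied to beta2-AR/beta-arrestin Tango cells, 18 hr, 37 degrees C, 5% CO2. Read-out: tTA-driven luciferase luminescence, converted to %Activity; concentration-response curves assigned curve classes.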
Potency means the concentration at half of the fitted maximal effect; tags describe the fitted curve by direction and shape.

Sequence of UniProt P07550 (P07550 whole entry, looked up): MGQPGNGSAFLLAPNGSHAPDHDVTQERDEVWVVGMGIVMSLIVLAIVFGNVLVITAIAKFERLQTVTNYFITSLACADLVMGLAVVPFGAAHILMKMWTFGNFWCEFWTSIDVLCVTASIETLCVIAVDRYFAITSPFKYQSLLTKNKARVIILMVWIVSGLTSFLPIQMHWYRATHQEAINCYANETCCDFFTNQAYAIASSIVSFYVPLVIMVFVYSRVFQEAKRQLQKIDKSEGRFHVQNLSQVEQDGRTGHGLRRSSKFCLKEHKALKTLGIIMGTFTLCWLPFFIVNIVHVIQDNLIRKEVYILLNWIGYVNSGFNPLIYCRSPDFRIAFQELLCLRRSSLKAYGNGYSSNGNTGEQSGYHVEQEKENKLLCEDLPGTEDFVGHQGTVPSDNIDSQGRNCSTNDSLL

| Structure (SMILES) | activation | Potency |
| --- | --- | --- |
| CC1CC1c1ccc(/C=C(\C#N)C(=O)Nc2ccc(Cl)cc2)o1 (stereo not drawn) | inactive: -0.77% | – |
| COc1ccc(C(=O)OCC(=O)c2c(N)n(C)c(=O)n(C)c2=O)cc1OC | – | inconclusive [rising, partial curve, poor fit] |
| COCCNC(=S)NN=C1CCC(c2ccccc2)CC1 (stereo not drawn) | – | inconclusive [rising, single point] |
| CSc1ccc(CSCC(=O)N2CCN(S(=O)(=O)c3ccc(C)cc3C)CC2)cc1 | inactive: -1.63% | – |
| C=CCc1c(C)nc2c(-c3ccccc3)cnn2c1N1CCOCC1 | inactive: 0.175% | – |
| CCOc1cc(/C=N/NC(N)=S)cc(Br)c1OCc1ccccc1C | – | inconclusive [activator, full curve] |
| COc1c(O)cc(O)c2c(=O)cc(-c3ccccc3)oc12 | – | inconclusive [rising, single point] |
| CC(=O)Cn1c(CN2CCCCC2)nc2ccccc2c1=O | inactive: -0.277% | – |
| Oc1ccc(Cl)cc1/C=C/c1ccc2cccc(O)c2n1 | – | inconclusive [rising, single point] |
| COc1ccc(C)cc1-n1c(SCC(=O)NCC2CCCO2)nc2c([nH]c3ccccc32)c1=O (stereo not drawn) | – | inconclusive [rising, single point] |
| O=C(O)/C(=C\c1ccco1)NC(=O)c1ccccc1 | – | inconclusive [rising, single point] |
| Cc1c(C)c2cc(Cl)c(OCc3nn[nH]n3)cc2oc1=O | inactive: 3.79% | – |
| CSc1nc2c(c(=O)[nH]1)C(c1cccs1)C1=C(CCCC1=O)N2 (stereo not drawn) | inactive: -0.798% | – |
| COc1cc(NC(=S)NC(=O)CC(C)C)ccc1NC(=O)c1cc2ccccc2o1 | – | inconclusive [rising, single point] |
| C/C(=N\Nc1nc(C)cc(-c2ccccc2)n1)c1ccc(C)o1 | – | inconclusive [rising, single point] |
| NC(=S)N/N=C/c1ccc(-c2ccc([N+](=O)[O-])cc2)o1 | – | inconclusive [rising, single point] |
| S=C(NC1CCCCC1)N1CCN(c2ccccn2)CC1 | inactive: 4.93% | – |
| CN(C)c1nc(=NCc2ccco2)ss1 | – | active: 2.24 µM |
| Cc1noc(/C=C/c2ccco2)c1S(=O)(=O)N1CCC(C(=O)N2CCc3ccccc3C2)CC1 | – | inconclusive [rising, single point] |
| COc1ccc(C(=O)N2CCCC2)cc1 | inactive: -0.0066% | – |
| COc1ccccc1C(=O)/C=C/c1ccc(N2CCCCC2)c([N+](=O)[O-])c1 | inactive: -0.182% | – |
| Cc1cc(C)nc(N2CCC(C(=O)N3CCN(c4cc(Cl)ccc4C)CC3)CC2)n1 | inactive: -0.963% | – |
| CC12CCC(=O)N1C(C(=O)Nc1nccs1)CS2 (stereo not drawn) | – | inconclusive [rising, single point] |
| O=C(Nc1ccc(S(=O)(=O)N2CCCC2)cc1)c1cccs1 | inactive: -0.131% | – |
| CCOC(=O)C1=CC[C@@H](c2cc3ccc(OC)cc3n2C)N(S(=O)(=O)c2ccc(C)cc2)[C@H]1C(=O)OCC | – | inconclusive [rising, single point] |

| Structure (SMILES) | activation | Potency |
| --- | --- | --- |
| Cc1cc(C)c2c(NC(=S)NC(=O)c3ccccc3)nn(C)c2n1 | – | inconclusive [rising, single point] |
| NCCc1nnc(SCc2ccccc2F)o1 | – | inconclusive [rising, single point] |
| COc1ccc(CNC(=O)c2ccc(Cn3nc(C)c([N+](=O)[O-])c3C)o2)cc1 | inactive: 3.65% | – |
| CC(C)C[C@H](NC(=O)N1CCn2c1nc1ccccc12)C(=O)NC1CCCCC1 | inactive: 0.563% | – |
| NS(=O)(=O)c1ccc(NC(=O)COC(=O)CCCN2C(=O)c3cccc4cccc(c34)C2=O)cc1 | inactive: -0.594% | – |
| NC(=S)NN=C(c1ccccc1)c1ccccc1 | – | inconclusive [rising, single point] |
| CCOC(=O)[C@H]1[C@H]2COc3cc(OC)ccc3[C@@H]2N2C(=O)c3cc(OC)ccc3NC(=O)[C@@]12C | – | inconclusive [rising, single point] |
| Fc1ccc(CNC(=S)Nc2cccc(C(F)(F)F)c2)cc1 | inactive: -0.668% | – |
| O=C(N/N=C\C=C\c1ccco1)C1COc2ccccc2O1 (stereo not drawn) | – | inconclusive [rising, single point] |
| Cc1ccc(Cl)cc1NC(=O)CSc1nnc(C)n1-c1ccccc1 | inactive: -0.0547% | – |
| O=c1[nH]c2c(cnn2-c2ccc(Cl)cc2)c(=O)n1-c1cccc(Cl)c1 | – | inconclusive [rising, single point] |
| CCN1C(=NCCc2cccnc2)N[C@@H](c2ccccc2)C(C(=O)OC)=C1C | – | inconclusive [rising, single point] |
| Cc1nc2ccc(Br)cn2c1C(=O)N/N=C\c1ccc(C(C)C)cc1 | inactive: -0.47% | – |
| Cc1ccc(N2CN=C(c3ccccc3)NC2=S)cc1 | – | inconclusive [rising, single point] |
| Fc1ccc(N2CN(Cc3cccnc3)CNC2=S)cc1 | inactive: -0.28% | – |
| O=C(NC1CCCCC1)C1(c2ccccc2)CC1(Cl)Cl (stereo not drawn) | – | inconclusive [rising, single point] |
| Cc1cc(/C=N/NC(N)=S)c(C)n1-c1ccc(Br)cc1 | – | inconclusive [rising, single point] |
| CC(=O)Nc1ccc(C2=NN(c3ccccc3)C(c3ccccc3)C2)cc1 (stereo not drawn) | – | inconclusive [rising, single point] |
| Cc1cccc(OCCCn2ccnc2)c1 | inactive: 0.124% | – |
| CC1=C/C(=N\OS(=O)(=O)c2ccccc2)C(C(C)C)=CC1=O | – | inconclusive [rising, single point] |
| c1ccc2c(c1)OCC(c1nnc3sc(-c4cnccn4)nn13)O2 (stereo not drawn) | inactive: 0.114% | – |
| C[C@H](NC(=O)c1ccccc1)C(=O)Nc1nc(-c2ccccn2)cs1 | – | inconclusive [rising, single point] |
| CCCNC(=O)CN(c1ccccc1)S(=O)(=O)c1ccc(OC)c(OC)c1 | – | inconclusive [rising, single point] |
| COc1ccc(-n2cccc2C=O)cc1 | inactive: -0.287% | – |
| COc1ccc(OC)c(C(=O)CN2CCN(S(=O)(=O)c3ccc(Br)cc3)CC2)c1 | – | inconclusive [rising, single point] |

| Structure (SMILES) | activation | Potency |
| --- | --- | --- |
| Cc1cc(C)n(CCc2nc(-c3ccc(C)o3)cs2)n1 | – | inconclusive [rising, single point] |
| CCOC(=O)NC(=S)Nc1ccc(C(C)(C)C)cc1 | – | inconclusive [rising, single point] |
| O=C(NC(=S)Nc1cccc2c(O)cccc12)c1cccc(Br)c1 | – | inconclusive [rising, single point] |
| CCCN=C1N(CC)C[C@@H]2[C@@H]3C(=O)N(C)C(=O)[C@@H]3[C@](CC)(C(=O)OC)N12 | – | inconclusive [rising, single point] |
| CCOc1ccc(C(=O)Nc2ccccc2N2CCOCC2)cc1 | inactive: 0.0217% | – |
| COc1ccc(S(=O)(=O)Nc2cc(Sc3ncn[nH]3)c(O)c3ccccc23)cc1 | inactive: -0.345% | – |
| Cc1ccccc1NC(=S)c1ccc2ccccc2n1 | – | inconclusive [rising, single point] |
| Cc1ccc(C(=O)N=c2sccn2C)cc1S(=O)(=O)N1CCOCC1 | – | inconclusive [rising, single point] |
| Cc1ccc(CN2CCSCC2)c(C)c1 | – | inconclusive [rising, single point] |
| COCCCNC(=O)CCC(=O)Nc1ccc2nc(N3CCOCC3)cc(C)c2c1 | – | inconclusive [rising, single point] |
| C#CCOCCOCCOCCNc1nc(N2CCN(C(=O)CCCCCCCCCCNC(=O)Cn3cc(C[C@@H](C)O)nn3)CC2)nc(N2CCN(C(=O)CCCCCCCCCCNC(=O)[C@@H]([C@H](C)O)n3cc(C)nn3)CC2)n1 | – | inconclusive [rising, single point] |
| Cc1ccc(Cn2c(/C=C/c3ccco3)nc3ccccc32)cc1 | – | inconclusive [rising, single point] |
| Cc1ccc2c(c1)NC(=O)[C@@]1(C)[C@@H](c3ccccc3)[C@H]3COc4ccc(Cl)cc4[C@@H]3N1C2=O | – | inconclusive [activator, full curve] |
| Cc1nn(-c2ccccc2)c(Cl)c1/C=N/NC(=O)CNC(=O)c1ccccc1Cl | – | inconclusive [rising, single point] |
| COc1ccc(OCc2cccc(C(=O)Nn3cc([N+](=O)[O-])cn3)c2)cc1 | inactive: -0.431% | – |
| Cc1cccc(NC(=S)NC2CCCC2)n1 | – | inconclusive [rising, single point] |
| S=C(Nc1ccccc1)Nc1nc2ccccc2n1CCOc1ccc(Br)cc1 | – | inconclusive [rising, single point] |
| CCOc1cc(N2CCOCC2)c(OCC)cc1NC(=O)COc1ncnc2ccccc12 | inactive: 0.274% | – |
| CCC(Sc1nc2ccsc2c(=O)n1-c1ccc(Cl)c(C)c1)C(=O)NCc1ccco1 (stereo not drawn) | – | inconclusive [activator, partial curve] |
| CCNC(=S)N/N=C(\C)c1cccc(C(F)(F)F)c1 | – | inconclusive [rising, single point] |
| CCOc1ccc2nc(NC3=NC(c4ccc(OC)cc4)CC(=O)N3)nc(C)c2c1 (stereo not drawn) | – | inconclusive [rising, single point] |
| COc1ccc(C(=O)C2CCCN(Cc3cnc(N4CCCC4)s3)C2)cc1OC (stereo not drawn) | – | inconclusive [rising, single point] |
| O=C(CC(=O)Nc1cccc(F)c1)Nc1cccc(F)c1 | – | inconclusive [rising, single point] |
